PubChem BioAssay AID938 (National Center for Advancing Translational Sciences (NCATS), 2007)
Values joined by “and” are separate entries in the source; they are usually repeats but may differ in a detail not shown here. Equal entries are not always repeated. The campaign covered roughly 73,000 compounds. About 1,800 (2.5%) were called active. The inconclusive results got no clear call from the source; some entries with a clear call stand among them for comparison. Calls come from the whole dose curve; as a rule, active = well fitted activation curve with a large enough effect; inconclusive = small, poorly fitted or top-dose-only effect; inactive = no such curve, though single readings can be large or run the other way. Potencies beside an inconclusive call are fits to weak or partial responses and may not hold up.

Test: qHTS Assay for Agonists of the Thyroid Stimulating Hormone Receptor: Activators of Intracellular cAMP Concentrations in Parental HEK 293; note: nearly all actives have a fitted effect of over 55% in size; for activation: % of control where 0% means no effect
Details: parental HEK293 CNG cAMP sensor, membrane potential fluorescence; activation: at 57.1 µM (top of the series) unless noted
Procedure, shortened: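 Parental HEK 293 cells stably expressing a cAMP-gated CNG channel were loaded with membrane potential dye containing 100 uM RO 20-1724 for 60 min. Compound added for 30 min; depolarization read as fluorescence intensity at 590 nm.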
Potency is the fitted concentration of half-maximal effect; tags give direction and shape of the fitted curve.

Row | SMILES | Potency | activation
1 | Cc1cccc(/C=C\c2ccccc2)n1 | inactive and inconclusive: 6.31 µM [activator, single point] | 
2 | Cc1ccc(N2C(=O)c3n[nH]c(C)c3C2c2ccco2)cc1 (configuration not stated) | inconclusive: 12.6 µM [activator, partial curve] | 
3 | COc1cccc(C(=O)Nc2cccc(-c3nnc(-c4ccccc4)o3)c2)c1 | inconclusive: 31.6 µM [activator, single point] | 
4 | Cc1nc(SCC(=O)N2CCCc3ccccc32)c2oc3ccccc3c2n1 | inconclusive: 31.6 µM [activator, single point] | 
5 | O=C(NCCCNC(=O)c1cccs1)c1cccs1 |  | inactive: 1.27%
6 | COc1cc(C(=O)Nc2nccs2)c(Br)c(OC)c1OC | inconclusive: 39.8 µM [activator, single point] | 
7 | CC(C)(CCc1nc2ccccc2[nH]1)C(=O)O |  | inactive: 13.4% [at 11.4 µM]
8 | Fc1cccc(Cl)c1Cn1nnc(-c2ccc3c(c2)OCO3)n1 | inconclusive: 25.1 µM [activator, partial curve] | 
9 | O=C(CCC(=O)N1CCc2ccccc21)N1CCc2ccccc21 | inconclusive: 6.31 µM [activator, single point] | 
10 | Cn1c(=O)c2c(nc(CN3CCN(Cc4ccccc4)CC3)n2Cc2ccc(F)cc2)n(C)c1=O | inconclusive: 39.8 µM [activator, single point] | 
11 | CC(=O)c1nnn(-c2nc(N)nc(N(c3ccccc3)c3ccccc3)n2)c1C | inconclusive: 12.6 µM [activator, partial curve] | 
12 | COc1ccc(-n2c(=O)c(-c3ccc(F)c(F)c3)nc3cncnc32)cc1 | inconclusive: 0.251 µM [activator, single point] | 
13 | Cc1cc(C)c2nc(N3CCCC(C(=O)N4CCC(C(N)=O)CC4)C3)sc2c1 (configuration not stated) |  | inactive: -5.11%
14 | O=C(NC(C(=O)c1ccccc1)n1ccc(=O)[nH]c1=O)c1ccccc1 (configuration not stated) | inconclusive: 3.98 µM [activator, single point] | 
15 | CC1CC(C)CN(c2ncc3c(n2)CC(c2ccc(Cl)cc2)CC3=O)C1 (configuration not stated) | inconclusive: 15.8 µM [activator, partial curve] | 
16 | COc1ccc(S(=O)(=O)N2CCC(C(=O)Nc3cccc(C(C)=O)c3)CC2)cc1C | inconclusive: 15.8 µM [activator, partial curve] | 
17 | O=C(Nc1nc(-c2ccc(Cl)s2)cs1)c1cccs1 | active: 25.1 µM | 
18 | COc1ccc(OC)c(-c2cc(C(=O)Nc3c(C)nn(Cc4ccc(Cl)cc4)c3C)no2)c1 |  | inactive: 6.11%
19 | CO/N=C1/[C@H]2O[C@@H]2[C@@H](O)[C@H]2[C@H]1CCn1c(=O)n(-c3ccccc3)c(=O)n12 |  | inactive: -7.91% [at 11.4 µM]
20 | O=C(COc1ccc(Cl)cc1Cl)Nc1ccc(Cl)cn1 | inconclusive: 20 µM [activator, partial curve] | 
21 | CC(C)CCn1c(SCC(=O)OCn2nnc3ccccc3c2=O)nc2ccccc2c1=O | inconclusive: 25.1 µM [activator, single point] | 

Row | SMILES | Potency | activation
22 | COc1ccc(-c2nc(CSCC(=O)N3CCN(c4cccc(C)c4)C(C)C3)c(C)o2)cc1OC (configuration not stated) | inconclusive: 31.6 µM [activator, single point] | 
23 | CC(C)(C)NC(=O)C(c1ccco1)N(C(=O)Cn1nnc(-c2ccc(F)cc2)n1)c1cccc(F)c1 (configuration not stated) | inconclusive: 3.16 µM [activator, single point] | 
24 | COC(=O)C(C(=O)OC)C1O[C@@]23COCCC2(C)C3c2ccccc21 (some centres not stated) |  | inactive: 8.64% [at 11.4 µM]
25 | O=C(COC(=O)c1ccc2c(c1)OCCO2)NCCC1=CCCCC1 | inconclusive: 7.94 µM [activator, full curve, poor fit] | 
26 | CN1/C(=C\C(=O)COc2ccc3c(c2)OCO3)C(C)(C)c2ccccc21 | active: 31.6 µM | 
27 | CCOc1ccc(-c2cc(CCCC(=O)NCc3cccnc3)no2)cc1 | inconclusive: 39.8 µM [activator, single point] | 
28 | CC(C)OCCCNC(=O)C1CCN(S(=O)(=O)N2CCCCC2)CC1 | inconclusive: 39.8 µM [activator, single point] | 
29 | CCN(CC)CCCNc1cc2n(c(=O)n1)CCc1cc(OC)c(OC)cc1-2 |  | inactive: 2.9%
30 | O=c1[nH]c(C(F)(F)F)nc2c1nnn2Cc1ccccc1F | active: 25.1 µM | 
31 | O=C(NC1CCCCC1)c1sc(=S)n2c1[nH]c(=O)c1ccccc12 | inconclusive: 7.94 µM [activator, full curve, poor fit] | 
32 | CC(C)(C)OC(=O)N[C@@H](Cc1ccccc1)c1nnc(S(=O)(=O)Cc2cccc(F)c2)o1 |  | inactive: 16.2%
33 | O=C(c1ccco1)N1CCC2(CCCN(c3ccccn3)C2)CC1 | inconclusive: 15.8 µM [activator, partial curve] | 
34 | O=C(c1n[nH]c(=O)c2ccccc12)N1CCN(c2ccccc2)CC1 | inconclusive: 6.31 µM [activator, single point] | 
35 | CCOC(=O)N1CCN(C(=O)CN(C)S(=O)(=O)c2ccc(OC)c(OC)c2)CC1 | inconclusive: 31.6 µM [activator, single point] | 
36 | CCn1c(SCC(=O)N2CCN(c3ccc(F)cc3)CC2)nc2ccccc2c1=O | inconclusive: 25.1 µM [activator, partial curve] | 
37 | Cc1cc(C)n2nc(C(=O)Nc3ccc4c(c3)OCO4)nc2n1 |  | inactive: 0.988%
38 | CC(C(=O)Nc1ccc(N2CCOCC2)cc1)N1C(=O)c2ccccc2C1=O (configuration not stated) | inconclusive: 39.8 µM [activator, single point] | 
39 | CCOC(=O)CSc1nc2sc(C)c(C)c2c(=O)n1C | inconclusive: 6.31 µM [activator, single point] | 
40 | NCCCS(=O)(=O)O | inconclusive: 6.31 µM [activator, single point] | 
41 | Cn1c(=O)n(CCCOc2ccc(Br)cc2)c2ccccc21 | inconclusive: 31.6 µM [activator, single point] | 
42 | COCCn1c(Sc2ccccc2)nc2c1c(=O)[nH]c(=O)n2C | inconclusive: 31.6 µM [activator, single point] | 
